From article PMC6212790
Some of the results follow. At the low end of the ranking the order means little.

molecular target: T1, GST-Rok (full length) (UniProt O34857); test: protein binding microarray; settings: Rok is a gene silencer of Bacillus subtilis; high values mean tight binding; most listed sequences are background and not binding sites; double strand, one strand shown;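 further: rank score from −0.5 (least bound) to 0.5 (best bound)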
T1 sequence: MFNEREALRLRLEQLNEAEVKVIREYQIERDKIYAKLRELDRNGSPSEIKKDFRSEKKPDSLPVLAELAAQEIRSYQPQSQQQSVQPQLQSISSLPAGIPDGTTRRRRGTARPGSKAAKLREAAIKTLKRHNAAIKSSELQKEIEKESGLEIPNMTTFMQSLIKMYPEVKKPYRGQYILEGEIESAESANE

Sequence | binding signal [E-score]
AATTGGCG | 0.0811
GTATAAAC | 0.16
ACTCCGAG | -0.131
GACGCGAC | -0.213
AGTGTAGC | 0.0592
GCGGCTTA | -0.246
AGTGTTGC | -0.0159
ACTACGCC | -0.0446
CAAATTAC | 0.356
AGTGTCCG | 0.013
CTCCAGAA | -0.00511
ACGACACT | -0.0609
ACATAATG | 0.27
CAACCGTC | -0.132
TCGTCCAA | -0.131
CATAAGCA | 0.0136
CCAAGAGC | -0.21
ACCAATGC | -0.0223
AACGAGAG | -0.0468
AGTTGAGG | -0.0249
ATCGCTGA | -0.0945
AACCCTCT | -0.137
AGAGAACG | 0.0786
CCCATCAG | -0.199
CCGCTGCC | -0.234

Sequence | binding signal [E-score]
ATACCGTC | 0.105
CTACCGTA | 0.311
AATGACGA | 0.0989
AACCTCCT | -0.0922
GAACGCAA | 0.0471
AATCGCAT | 0.0612
ACTGTCAG | -0.0887
GCGACGCC | -0.228
CGGAATGC | -0.154
GAGAGCGC | -0.232
CGTTCCAC | -0.021
CCAATGTA | 0.0945
TCCTTTCA | -0.131
GAGTGCTA | 0.136
AAGCAACC | -0.143
CCCCCAAA | -0.353
CCGCCACA | -0.129
CTTTGGTC | -0.0411
GGTAACAC | 0.0456
GAGTAACC | -0.000947
GTCAGTGA | -0.0974
AATCTTCT | 0.121
GTTAGATA | 0.241
AGACGTGA | -0.117
CGACAAGC | -0.2

Sequence | binding signal [E-score]
TCAGCTCA | -0.129
ATTGTATA | 0.32
ACCACCCT | -0.178
ATCTGGCC | -0.287
AGCGGTTC | -0.145
AGCCAACG | -0.22
TTCTTAAA | 0.112
CCTAATAC | 0.174
ACGGCGCC | -0.271
GTCGGCAC | -0.269
GGGTTGAC | -0.132
AATGAAAT | 0.182
TTAGCGAA | -0.0273
ACACCCCT | -0.364
ATATAAGG | 0.0146
GAAGCGGC | -0.242
ATTCAAGC | -0.0301
CCCTTAAG | -0.251
ATGAAGCA | -0.146
GAGACAGC | -0.0967
ATGCCCTA | -0.0587
TGTTTTAA | 0.135
TCATGGAA | 0.107
ACAACCAT | -0.0213
CCCATAGG | -0.27

Sequence | binding signal [E-score]
TAATTCTA | 0.345
AACAGAGT | 0.0366
GATGGTCC | -0.15
AGCCCTTA | -0.135
GCCGTCGA | -0.222
GGGGGACC | -0.442
AGAAGATA | 0.168
CCACATTC | -0.037
GCCACCCC | -0.331
ACAACGGA | 0.0198
CAAGCTTG | 0.0805
AGAACAAT | 0.0745
CCGGGTAA | -0.0598
AACATCTA | 0.236
GTCGTCAA | -0.0888
AAGCTGGC | -0.291
AACGGATT | -0.138
CACGCTGA | -0.189
ACCTTAAT | 0.225
ATACTAAG | 0.175
TCGCCGAA | -0.00469
CTAATCTC | 0.0718
ACGGAGTA | 0.0618
ATGGTGCG | -0.116
AAAGAGAC | -0.115

Sequence | binding signal [E-score]
CCATTGCG | -0.13
AGTCTGCG | 0.0274
AGGGATGC | -0.295
AAACTTCT | 0.26
AGCTCACC | -0.298
CAGAGAGC | -0.152
AGCGAGTA | 0.19
GAAGAGGA | -0.191
ACATATTC | 0.27
AGGGAAGG | -0.28
ATTTTCTA | 0.397
TCCTCTCA | -0.197
AGTTGGCA | 0.106
CTCTTGCA | -0.0115
CAGCCGGG | -0.324
AAGGTAAT | 0.209
AAGTCTCT | -0.169
GGTATAAA | 0.383
AAGTAACT | 0.225
GACTCGAA | -0.164
CTTCTCGC | -0.0135
AATTGCTA | 0.335
ACTCGATA | 0.157
CCTAATGC | -0.154
GCCTCGGA | -0.114

Sequence | binding signal [E-score]
AATAAGTG | 0.0215
CACCACAA | 0.174
CGCACGCG | -0.257
AGACTCTG | -0.185
AGAGACTA | 0.093
AATGGCCT | -0.0659
GTCAACCA | 0.0527
AGGTATCG | 0.0878
CCCTGGGC | -0.337
CCAATACA | 0.0507
CGTTGTGC | -0.051
GTTGCAGA | -0.0465
GAGTAAGA | -0.0643
AGGGAAGA | -0.237
CCAACATA | 0.178
GAGCCACC | -0.278
GTGGGCCA | -0.235
CTGCGCGA | -0.168
GCGAACTA | 0.272
CGCTAATA | 0.282
CTAAGCTC | 0.177
AGAGGAAT | -0.0077
TAAGATAA | 0.194
CGGGGTAA | -0.098
GCTCCAAA | -0.198

Sequence | binding signal [E-score]
CAACCCAA | 0.103
AATGCTGT | 0.207
ATGGACGG | -0.197
CGAAAGGA | -0.308
GTTCCGAA | -0.0287
CGATCCCG | -0.227
CAGCTATG | -0.0585
CTGGTATC | 0.0753
GTAAATCA | 0.194
GCGAAAGA | -0.083
CGTGGGAC | -0.0558
AAAGGAGT | -0.295
AAGAACGC | -0.105
AAATATAA | 0.253
CCGCTCCC | -0.479
GCATTGAA | 0.159
CGGACGAA | -0.029
CGAGCGGC | -0.256
CACCCCCA | -0.326
GTTCCAAA | -0.0585
ATTACTGA | 0.0954
CATCTGGA | 0.0248
